We go through seven molecules from patent publication US20260242472A1 (SANYOU BIOPHARMACEUTICALS, published 2026).

Positions count from the first letter of the chain named.

As a reminder, the Kd is the constant that tells how readily two partners part at equilibrium. Higher therefore signals a looser complex. Usually koff stands for a measure of how fast the partners let go of each other. Low values mean slow dissociation, high ones fast dissociation. Usually kon stands for the rate constant with which the complex forms. Low readings indicate slow association, high ones fast association. As a reminder, the EC50 is the concentration giving half of the maximal effect. Low readings indicate higher potency in that assay, high ones lower potency in that assay.

In test [1] the target is T1, huCD3E-AA1-27-huFc-Biotin (human, biotinylated (sites not given)).
T1 construct: also called biotinylated huCD3E AA1-27-huFc
T1 chain: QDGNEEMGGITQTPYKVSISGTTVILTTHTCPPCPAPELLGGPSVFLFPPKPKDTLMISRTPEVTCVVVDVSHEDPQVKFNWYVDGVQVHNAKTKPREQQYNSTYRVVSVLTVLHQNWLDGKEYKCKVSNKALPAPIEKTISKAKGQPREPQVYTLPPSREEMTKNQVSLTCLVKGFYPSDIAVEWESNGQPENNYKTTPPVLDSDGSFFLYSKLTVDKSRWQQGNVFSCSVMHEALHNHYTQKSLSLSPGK
Nature of the test: BLI (Gator), biotinylated antigen on SA probe, antibody 0.62-40 nM. The protocol:
Protein biotinylation: The antigen protein huCD3E AA1-27-huFc was diluted to a final concentration of 1 mg/mL, premixed with biotin and reacted at 4° C. for 1 h, and then unreacted free biotin was removed by filtration with an ultrafiltration tube to obtain biotinylated huCD3E AA1-27-huFc (hereinafter referred to as huCD3E-AA1-27-huFc-Biotin).
In the dark, the sensor was pre-wetted with Q Buffer (SA Probes, ProbeLife). After 10 min, the sample plate (Greiner, 655209) was tested. After the test was correct, the preset procedure was followed. First, antigen binding was performed for 600 s. After the binding was completed and equilibration was continued in Q Buffer for 30 s, the sensor bound to the antigen huCD3E-AA1-27-huFc-Biotin was transferred to different concentrations of antibody dilutions for binding for 120 s, and then transferred to Q Buffer for dissociation for 180 s. Finally, KD, Ka and Kd were obtained by fitting the binding and dissociation data of different concentrations of antigens and antibodies.

Test [2] has as its target T2, huCD3E-AA1-27-huFc (human).
T2 construct: Made in HEK293 cells, purified on Protein A/G. No linker between the two parts is mentioned; also called antigen protein
T2 chain: T1 chain
Nature of the test: SPR (Biacore T200), antigen amine-coupled to about 75 RU, antibody 4 and 20 nM, 1:1 Langmuir fit. On the procedure:
Protein coupling: The huCD3E-AA1-27-huFc protein produced in example 1.2 was diluted to 5.8 μg/mL with an NaAc buffer at pH 4.5. The flow rate was set to 10 μL/min. The chip was activated with a mixture of 1-ethyl-(3-dimethylaminopropyl)carbodiimide (EDC) and N-hydroxysuccinimide (NHS) for the default time of 420 s. The antigen protein huCD3E AA1-27-huFc was immobilized to a level of approximately 75 RU using a coupling mode with a preset coupling amount. The activated groups not bound to the test sample were blocked with ethanolamine.
Sample test condition: A PBS buffer (pH 7.4) containing 0.05% Tween-20 was used as a running buffer, and the running buffer was used as a control antibody test sample. A series of antibody concentrations (4 nM, 20 nM) were set. During sample analysis, the flow rate was set to 30 μL/min, the binding time was 180 s, and the dissociation time was 300 s. After dissociation was completed, regeneration was performed with 10 mM Gly-HCl (pH 2.0) for 20 s to completely remove antibody bound to the antigen.
Parameter fitting: The experiment was run in multiple cycles, with the response signal plotted against analysis time on the abscissa and response value on the ordinate. After dual-reference subtraction, the obtained data were fitted by BIAcore T200 analysis software. The fitting model used was a 1:1 Langmuir binding model, so as to determine affinity indicators such as the binding dissociation constant.
In general terms: Surface plasmon resonance follows binding to a sensor surface in real time, without labels.

In test [3] the target is T3, human CD3D and CD3E on huCD3D-CD3E-CHO-K1 cells (human, UniProt P04234; P07766).
T3 construct: Whole entries as named, with their signal peptides; also called human CD3D&CD3E
As to the kind of experiment: flow cytometry on huCD3D-CD3E-CHO-K1 cells, PE anti-human IgG Fc secondary; EC50 from the table drawn beside the curves, unit taken from the concentration axis.

Test [4] deals with T4, CD3 on Jurkat cells (human, UniProt P07766).
T4 construct: whole, on cells; only the CD3E chain is named here, the other chains of the complex are not described; also called Jurkat cells (human T lymphocytic leukemia cells); NF-κB-Jurkat cells
Nature of the test: flow cytometry on Jurkat cells, PE anti-human IgG Fc secondary; EC50 from the table drawn beside the curves, unit taken from the concentration axis. On the technique in general: A flow cytometer gives signals particle by particle.

T3 sequence (P04234 22-171 limits assumed): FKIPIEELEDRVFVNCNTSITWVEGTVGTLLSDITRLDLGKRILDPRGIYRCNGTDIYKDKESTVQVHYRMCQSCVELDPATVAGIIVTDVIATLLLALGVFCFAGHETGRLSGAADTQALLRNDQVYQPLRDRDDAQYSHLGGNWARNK

B1: 63-P3-1-scFv-LH (Fc fusion)
scFv: QTVVTQEPSLTVSPGGTVTLTCGSSTGAVTSGYYPNWVQQKPGQAPRGLIGGTKFLAPGTPARFSGSLLGGKAALTLSGVQPEDEAEYYCALWVDNRWVFGGGTKLTVLGGGGSGGGGSGGGGSEVQLVESGGGLVQPGGSLKLSCAASGFTFSKYAMNWVRQASGKGLEWVGRIRSKYNNYATYYADSVKDRFTISRDDSKNTAYLQMNNLKTEDTAVYYCVRHGNFGNSYISYWAYWGQGTTVTVSS[letters of human IgG4 Fc with S228P (EU numbers) not shown]
In test [1], B1 showed a Kd of 0.136 nM, a koff of 0.000226 s⁻¹ and a kon of 1.66e+06 M⁻¹ s⁻¹. In addition, in test [2], the Kd came to 0.0569 nM, the off-rate (koff) came to 0.000138 s⁻¹ and the kon is 2.43e+06 M⁻¹ s⁻¹.

B2: 78-P1-3-scFv-LH (Fc fusion)
scFv: B1 scFv with G48A, G51Y, K54H, V94Y, D95S, S154P, S165P, A183E
Turning to B2, in test [1], the affinity, expressed as Kd, was 33.1 nM; the koff amounted to 0.0143 s⁻¹; the kon was found to be 431000 M⁻¹ s⁻¹. In test [2], this molecule returned a Kd of 8.71 nM, an off-rate (koff) of 0.0177 s⁻¹ and a kon of 2.03e+06 M⁻¹ s⁻¹.

B3: P3-1-scFv-LH (Fc fusion)
scFv: [letters of about 120 residues not shown]GGGSGGGGSGGGGSEVQLVESGGGLVQPGGSLKLSCAASGFTFSKYAMNWVRQASGKGLEWVGRIRSKYNNYATYYADSVKDRFTISRDDSKNTAYLQMNNLKTEDTAVYYCVRHGNFGNSYISYWAYWGQGTTVTVSS[letters of human IgG4 Fc with S228P (EU numbers) not shown]
notes: scFv-Fc
With B3, in test [1], the Kd was found to be 0.499 nM, the koff was found to be 0.000584 s⁻¹ and the kon is 1.17e+06 M⁻¹ s⁻¹. In addition, it took 0.096 µg/mL to reach a half-maximal effect in test [3] (EC50).

B4: P1-3-3-scFv-LH (Fc fusion)
scFv: B1 scFv with G48A, G51Y, V94Y, D95S
In test [1], B4 had a Kd of 3.94 nM, a koff of 0.00237 s⁻¹ and a kon of 602000 M⁻¹ s⁻¹.

B5: P2-3-5-scFv-LH (Fc fusion)
scFv: B1 scFv with G48A, V94Y, D95S
In test [1], B5 registered a Kd of 0.332 nM, a koff of 0.00041 s⁻¹ and a kon of 1.23e+06 M⁻¹ s⁻¹.

B6: 79-P3-1-scFv-LH (Fc fusion)
scFv: B1 scFv with V94Q, D95E
For B6, in test [1], binding was put at a Kd of 0.384 nM, the koff was 0.000471 s⁻¹ and the kon was found to be 1.23e+06 M⁻¹ s⁻¹.

B7: 78-P3-1-scFv-LH (Fc fusion)
scFv: B1 scFv with K54H, V94Y, D95S, A183E
In test [1], B7 gave a Kd of 0.216 nM, a koff of 0.000434 s⁻¹ and a kon of 2.01e+06 M⁻¹ s⁻¹. The midpoint of the response in test [4], the EC50, lay at 0.0241 µg/mL. Further, in test [2], binding was put at a Kd of 0.0485 nM, the koff was found to be 9.38e-05 s⁻¹ and the kon is 1.93e+06 M⁻¹ s⁻¹.
